Sequences with one replicate were seen in a single cluster, so their values are uncertain.
Test system: ATP
Experiment: switch fluorescence ratio, 500 uM ATP over buffer (Cy3 cluster intensity, sum of 5 cycles each) (fold (ratio)); higher = stronger signal-on switching upon ATP binding; sequences stand for … in TCGTCGGCAGCGTCAGATGTGTATAAGAGACAGTTTTTTTTTTTTTTTTTTTTTTTTT…TC
Settings: aptamer strand: ATP DNA aptamer (quencher-CACCTGGGGGAGTATTGCGGAGGAAGG + anchor), 100 nM annealed; ATP concentration: 500 uM; one replicate
How it was run: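 Per cluster, summed Cy3 intensity from the target cycles was divided by that from the buffer cycles to give the fluorescence ratio, then averaged per switch-domain sequence. Clusters outside 100-1000 RFU were excluded. The Cy3-labelled switching-strand clusters, on a modified Illumina MiSeq flow-cell, were annealed to 100 nM quencher-labelled ATP aptamer and imaged in selection buffer, then after 15 min with 500 uM ATP at 22 °C, for five cycles with NaOH stripping and re-annealing between them.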
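Note: ATP exposure 15 min at 22 °C before imaging.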

GGTCTTGCTC
switch fluorescence ratio: 1.02

GACCTGTTGT
switch fluorescence ratio: 1.02

CCCTTGGGAT
switch fluorescence ratio: 1.01

TGAGCGGGGA
switch fluorescence ratio: 1.02

GGAAATCTGA
switch fluorescence ratio: 1.04

TCATGGTGCG
switch fluorescence ratio: 1.02

ATCAACAGAC
switch fluorescence ratio: 1.03

GAGTCTCAG
switch fluorescence ratio: 1.02

ACGACTGAGG
switch fluorescence ratio: 1.03

GCTATTCATA
switch fluorescence ratio: 1

AATAAGGCGA
switch fluorescence ratio: 0.981

CGGTAGCAGG
switch fluorescence ratio: 1.12

ACCGTGAAAT
switch fluorescence ratio: 1.01

CGGACCAGGA
switch fluorescence ratio: 1.06

CACTCAGGGC
switch fluorescence ratio: 1.12

GGAGCAGGGG
switch fluorescence ratio: 1.08

GGGAAATGG
switch fluorescence ratio: 1.09

AAGCGTAGCC
switch fluorescence ratio: 1.05

AGCGAATCTA
switch fluorescence ratio: 1.02

TCATGTGATC
switch fluorescence ratio: 1.01

CGGGGCTATA
switch fluorescence ratio: 1.05

GCACCATCAT
switch fluorescence ratio: 1.01

AATCCTTTGG
switch fluorescence ratio: 1.02

GTTAAGGGTC
switch fluorescence ratio: 1.03

GACTGCATCT
switch fluorescence ratio: 1.03

TAGGACATTA
switch fluorescence ratio: 1.06

TTTCGTGTCT
switch fluorescence ratio: 0.959

TATGTTAAT
switch fluorescence ratio: 1

GCGGTCCGCA
switch fluorescence ratio: 1.07

ATGCCCATGA
switch fluorescence ratio: 0.958

TCCGTTCCAT
switch fluorescence ratio: 1.07

TAGCCTGTTT
switch fluorescence ratio: 0.967

TTATCTTTAA
switch fluorescence ratio: 1

TCGTTCTGT
switch fluorescence ratio: 0.968

GACTCCTATT
switch fluorescence ratio: 1.16

TGAGCGTGCT
switch fluorescence ratio: 1.03

GCACCTTTTA
switch fluorescence ratio: 0.989

ACAATTGATT
switch fluorescence ratio: 1.03

CATTTTTGA
switch fluorescence ratio: 0.996

GCCAGGTCGC
switch fluorescence ratio: 1.02

TTGAATTTTT
switch fluorescence ratio: 0.98

CCAATGGTGC
switch fluorescence ratio: 1.58

GCATCATAGG
switch fluorescence ratio: 1.04

CGGATCGAGG
switch fluorescence ratio: 1.04

GGATCATTTG
switch fluorescence ratio: 0.963

GCGGTTAAGA
switch fluorescence ratio: 0.991

GTTCGTAAGA
switch fluorescence ratio: 0.994

TGATCTACCG
switch fluorescence ratio: 1.06

AATCTATAAA
switch fluorescence ratio: 0.971

ACCAGGTTTC
switch fluorescence ratio: 1.12

GATTATTG
switch fluorescence ratio: 1.03

CATGAAATAT
switch fluorescence ratio: 0.95

TTATTATGT
switch fluorescence ratio: 1.01

ATTGTTGCCG
switch fluorescence ratio: 0.969

TTACGCTG
switch fluorescence ratio: 1.04

ATGTAAATCA
switch fluorescence ratio: 0.953

GTTGTCATGG
switch fluorescence ratio: 0.972

GCCATTGGCC
switch fluorescence ratio: 1.02

ATGCCTGATC
switch fluorescence ratio: 1.08

GCTGTCCCCA
switch fluorescence ratio: 0.984

TGACCGTCT
switch fluorescence ratio: 0.992

TACCAAGCGC
switch fluorescence ratio: 1.01

TTATGTCGCG
switch fluorescence ratio: 1.01

GCGGAGCCTG
switch fluorescence ratio: 0.98

TATGCCACAG
switch fluorescence ratio: 0.981

ATGGACTTCT
switch fluorescence ratio: 1.01

ACGGGCCTCG
switch fluorescence ratio: 0.974

TTTCACCATT
switch fluorescence ratio: 0.974

CAATTCACAT
switch fluorescence ratio: 0.998

CCCTCGCCTA
switch fluorescence ratio: 1.16

TCATTATCCT
switch fluorescence ratio: 1.01

CGTGCGGTCC
switch fluorescence ratio: 1.02

TCGCTCGCTC
switch fluorescence ratio: 1.88

CAAGCTGCTG
switch fluorescence ratio: 0.957

AGTCTCATGC
switch fluorescence ratio: 0.955

ACTTTGGG
switch fluorescence ratio: 0.999

TGATTGCGAG
switch fluorescence ratio: 1.01

GCACTTTGTG
switch fluorescence ratio: 1

GTAGTTCCTG
switch fluorescence ratio: 0.978

AGGGTAAAAC
switch fluorescence ratio: 1.04

ACATCAGTGG
switch fluorescence ratio: 1.03

GTGGTGTTCC
switch fluorescence ratio: 0.98

AAGCGGAGGT
switch fluorescence ratio: 1

TTCATGGATG
switch fluorescence ratio: 0.987

TTCATGGC
switch fluorescence ratio: 1

GGTTTTAGGC
switch fluorescence ratio: 0.983

TTGTAAACGT
switch fluorescence ratio: 1.01

AGTTGGTAAG
switch fluorescence ratio: 0.954

GTACTTTTG
switch fluorescence ratio: 1

GCAGTATAGG
switch fluorescence ratio: 1

TCCTCTGATT
switch fluorescence ratio: 1.54

AGCCGCGACC
switch fluorescence ratio: 2.19

TAAGTGCCTA
switch fluorescence ratio: 0.983

CTATGTGGTA
switch fluorescence ratio: 1

GCTATCACTC
switch fluorescence ratio: 1.24

TACATAGCAT
switch fluorescence ratio: 1.23

AGGGGTCTT
switch fluorescence ratio: 1

ATATGGCCAC
switch fluorescence ratio: 0.961

GGCTATTGTT
switch fluorescence ratio: 0.985

ACTCACAGAG
switch fluorescence ratio: 1.01

TTTAGCGATC
switch fluorescence ratio: 1.55

TATCGTTACG
switch fluorescence ratio: 1.05

ATAAGGCAC
switch fluorescence ratio: 1.04

TCATTAATAA
switch fluorescence ratio: 0.99

ACAATGATCG
switch fluorescence ratio: 0.991

TAAAGTCATC
switch fluorescence ratio: 1

ACTTAGGCAT
switch fluorescence ratio: 1.11

GGATCCTGAG
switch fluorescence ratio: 1.03

ATGTTCTTCC
switch fluorescence ratio: 1.74

GGCACTACCC
switch fluorescence ratio: 1.19

CAAACCCCAA
switch fluorescence ratio: 1

GGATAATTTG
switch fluorescence ratio: 0.975

CTGACATTGG
switch fluorescence ratio: 0.985

CGCGATTGAT
switch fluorescence ratio: 1.03

ATAAGTTGTC
switch fluorescence ratio: 1.01

GTGCGGGAGC
switch fluorescence ratio: 1.02

TATAGTTGGG
switch fluorescence ratio: 1.01

AACAACACTC
switch fluorescence ratio: 1.22

CTGAGCATGA
switch fluorescence ratio: 1.04

GGGTTGCAAG
switch fluorescence ratio: 0.965

ATTCGTTGGT
switch fluorescence ratio: 0.98

AGACCTTAAG
switch fluorescence ratio: 0.958

AGGCAGACAG
switch fluorescence ratio: 1.01

GGACATGAAT
switch fluorescence ratio: 1.05

TTTCGCCCGT
switch fluorescence ratio: 1

ATGCTTGTCC
switch fluorescence ratio: 0.994

TATGAGAAAA
switch fluorescence ratio: 1.1

ATTAGCGGTG
switch fluorescence ratio: 1.03

GTGACGATTC
switch fluorescence ratio: 1.53

CGTTCTTCCG
switch fluorescence ratio: 1.23

ACTCACCCCC
switch fluorescence ratio: 2.33

GAAGCCGGAG
switch fluorescence ratio: 0.974

GTACGCGGCT
switch fluorescence ratio: 0.994

GCTCTATTTG
switch fluorescence ratio: 0.982

CGTAGCGTAC
switch fluorescence ratio: 5

ACGTGATACG
switch fluorescence ratio: 1.08

GACGCGTAAC
switch fluorescence ratio: 5.95

AATGACAGCA
switch fluorescence ratio: 1.06

GCCTGTGGAA
switch fluorescence ratio: 1.05

CCTTAGAGCG
switch fluorescence ratio: 1.03

GGTCGGAGCA
switch fluorescence ratio: 1.02

ACCATTGCAT
switch fluorescence ratio: 1.03

CACAACCAAA
switch fluorescence ratio: 1.02

ATATGTATA
switch fluorescence ratio: 0.996

GGAGTTACGT
switch fluorescence ratio: 1.01

TTTAAATACA
switch fluorescence ratio: 1.05

GTGCGGGAG
switch fluorescence ratio: 1.02

CATTGGAACA
switch fluorescence ratio: 0.994

GCCACGTAAC
switch fluorescence ratio: 1.44

TGAAGGGAG
switch fluorescence ratio: 0.991

GCAATTAGTT
switch fluorescence ratio: 1.54

TCTTTTCAAG
switch fluorescence ratio: 1.05

TAGACACGGA
switch fluorescence ratio: 1.04

TGGTGCGGCT
switch fluorescence ratio: 1

ATGCCGTCGT
switch fluorescence ratio: 1.02

CTGGCGAAAC
switch fluorescence ratio: 1.68

AGAGCATCAC
switch fluorescence ratio: 1.11

Reference: the supplement of paper PMC10126150
